According to PubChem BioAssay AID1460 (National Center for Advancing Translational Sciences (NCATS), 2008):
Among all 270,000 compounds or so, about 5,800 (2.1%) were called active. This list was built around the results that the source calls inconclusive (neither active nor inactive); the mix of calls is not that of the screen. The call rests on the fitted dose curve; in most records, active means well fitted inhibition curve with a large enough effect; inconclusive means small, poorly fitted or top-dose-only effect; inactive means flat fitted curve, though single readings scatter. Potencies beside an inconclusive call are fits to weak or partial responses and may not hold up.

Each compound was assayed against Microtubule-associated protein tau (Homo sapiens) (UniProt P10636) (assay: qHTS for Inhibitors of Tau Fibril Formation, Thioflavin T Binding). Settings: recombinant tau K18 P301L (four-repeat tau fragment), heparin-induced fibrillization, ThT fluorescence; series mostly up to 57.4 µM.
Sequence of UniProt P10636 (P10636 whole entry, looked up, the tested form may be a part): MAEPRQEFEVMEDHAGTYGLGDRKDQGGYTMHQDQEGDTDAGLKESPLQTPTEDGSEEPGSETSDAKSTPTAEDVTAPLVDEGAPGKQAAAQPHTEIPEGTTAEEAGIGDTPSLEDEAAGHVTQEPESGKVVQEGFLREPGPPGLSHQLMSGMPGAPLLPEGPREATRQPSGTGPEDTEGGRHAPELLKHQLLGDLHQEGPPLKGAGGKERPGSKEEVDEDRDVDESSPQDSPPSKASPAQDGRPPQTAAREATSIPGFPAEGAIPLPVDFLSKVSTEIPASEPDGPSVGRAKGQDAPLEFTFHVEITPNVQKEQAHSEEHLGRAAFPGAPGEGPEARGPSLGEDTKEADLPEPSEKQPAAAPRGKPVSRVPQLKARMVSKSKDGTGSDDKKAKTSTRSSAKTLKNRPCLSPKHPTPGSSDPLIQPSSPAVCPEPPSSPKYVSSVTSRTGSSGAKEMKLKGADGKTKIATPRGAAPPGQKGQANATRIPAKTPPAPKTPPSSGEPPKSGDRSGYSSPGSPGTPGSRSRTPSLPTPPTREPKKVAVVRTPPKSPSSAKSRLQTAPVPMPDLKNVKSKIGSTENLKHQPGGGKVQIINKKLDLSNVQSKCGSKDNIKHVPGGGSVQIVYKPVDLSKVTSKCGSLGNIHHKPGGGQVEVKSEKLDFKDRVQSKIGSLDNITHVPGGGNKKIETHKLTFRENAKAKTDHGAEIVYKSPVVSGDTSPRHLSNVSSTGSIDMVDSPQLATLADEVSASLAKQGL
Outline: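 Recombinant human tau K18 fragment […] carrying P301L, 15 uM unlabeled plus 0.24 uM Alexa 594-labeled, was fibrillized with 20 uM heparin in 100 mM sodium acetate pH 7 for 6 hr at 37 C; 30 uM ThT fluorescence read after 1 hr.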
Further: nearly all actives have a fitted effect of over 55% in size.
Potency means the concentration at half of the fitted maximal effect; tags describe the fitted curve by direction and shape.

SMILES	Potency
O=C(CSc1ccsc1[N+](=O)[O-])NCCc1ccccc1	inconclusive: 28.2 µM [inhibitor, single point]
O=[N+]([O-])c1ccc(NCc2ccc(Cl)cc2)nc1	inconclusive: 31.6 µM [inhibitor, partial curve, poor fit]
Cc1c(C#N)c(O)n(C)c(=O)c1N=Nc1ccc(S(N)(=O)=O)cc1	active: 3.98 µM
Cc1ccc(O)c(-c2cc(C(=O)Nc3cccnc3)[nH]n2)c1	inconclusive: 2.24 µM [inhibitor, partial curve, poor fit]
O=C(C1=C[C@@H]2[C@H]3C(=O)N(c4ccccc4)C(=O)[C@H]3[C@@H](C(=O)c3ccc(Cl)cc3)N2C=C1)c1ccccc1	active: 14.1 µM
CCOC(=O)c1ccc(-n2c(CCC(=O)O)ccc2-c2ccccc2)cc1O	inconclusive: 31.6 µM [inhibitor, single point]
COc1ccc(-n2ncc3c(N4CCN(c5cc(C)ccc5C)CC4)ncnc32)cc1	inconclusive: 5.62 µM [inhibitor, partial curve, poor fit]
CCN(CC)CC(=O)Nc1ccc2c(c1)N(C(=O)CN(CC)CC)c1ccccc1CC2	inactive
Cc1cccc(NC(=S)NC(=O)/C=C/c2ccco2)n1	inconclusive: 28.2 µM [inhibitor, partial curve]
CC(C)CCNc1nc(Nc2ccccc2)c2cnn(C)c2n1	inactive
O=C1NC2(Nc3ccccc31)C(=O)Nc1ccc(Br)cc12 (configuration not stated)	inconclusive: 10 µM [inhibitor, partial curve, poor fit]
O=C(Nc1cc(-c2cccc(Cl)c2)nn1-c1ccccc1)c1ccccc1F	inactive
O=C1C2C(c3ccccc3)CC=CC2[C@H](c2cccc([N+](=O)[O-])c2)N1Cc1ccccc1 (some centres not stated)	inconclusive: 8.91 µM [inhibitor, single point]
Cn1c(SCc2ccc(Cl)cc2)nnc1C1CC1	inconclusive: 5.01 µM [inhibitor, partial curve]
COc1ccc(CNC(=O)c2c(O)c3cccc4c3n(c2=O)CCC4)cc1	inactive
Cc1ccc(/C=C/C(=O)N2CCN(c3ncccn3)CC2)o1	inconclusive: 25.1 µM [inhibitor, single point]
Cc1ccsc1C(=O)OCc1csc(-c2ccccc2)n1	inactive
COc1cccc(C2C(C(=O)Nc3nc4ccccc4s3)=C(C)NC3=C2C(=O)CC(C)(C)C3)c1OC (configuration not stated)	inconclusive: 3.16 µM [inhibitor, partial curve]
CCc1ccc(O)c(N=Cc2ccccc2O)c1	inconclusive: 25.1 µM [inhibitor, partial curve]
CC(=O)c1ccc(NC(=O)CN2C(=O)/C(=C/C(C)=C/c3ccccc3)SC2=S)cc1	inconclusive: 25.1 µM [inhibitor, partial curve]
COc1ccc2c(c1)c(C(=O)N/N=C/c1ccc(OC)c(OC)c1)c(C)n2C	inconclusive: 28.2 µM [inhibitor, partial curve]
NC(=S)N=Nc1c(O)n(CCCl)c2ccc(Cl)cc12	inconclusive: 1 µM [inhibitor, full curve, poor fit]
CCOc1ccc(C2=Nn3c(nnc3-c3ccccn3)SC2)cc1	inconclusive: 14.1 µM [inhibitor, single point]

SMILES	Potency
CN(C)S(=O)(=O)c1ccc(/C(O)=C2/C(=O)C(=O)N(Cc3cccnc3)C2c2ccco2)cc1 (configuration not stated)	inconclusive: 20 µM [inhibitor, single point]
Cc1ccc(-c2nn(-c3ccccc3)cc2/C=N/n2c(-c3ccncc3)n[nH]c2=S)cc1	inactive
C=CCOc1c(Br)cc(CNc2ccc(NC(=O)CCC)cc2)cc1OCC	inconclusive: 25.1 µM [inhibitor, single point]
N#C/C(=C\c1cccc(NC(=O)c2ccccc2Cl)c1)C(=O)NCCc1ccccc1	inactive
Cc1ccc(C(=O)OCC(=O)N2CCc3ccccc32)cc1	inconclusive: 14.1 µM [inhibitor, partial curve]
CCCNC(=O)c1cc2c3ccccc3n(C)c2s1	inconclusive: 15.8 µM [inhibitor, partial curve]
CSc1nc2ccc(NS(=O)(=O)c3cccc(Cl)c3Cl)cc2s1	inactive
O=C(CN1CCN(c2ncc(C(F)(F)F)cc2Cl)CC1)N1CCN(c2ncc(C(F)(F)F)cc2Cl)CC1	inconclusive: 10 µM [inhibitor, partial curve]
Cc1ccc(-c2noc(CCC(=O)NCc3ccco3)n2)cc1	inactive
O=C(N/N=C/c1cc([N+](=O)[O-])ccc1O)C1CCCCC1	inconclusive: 12.6 µM [inhibitor, partial curve]
C=CCc1cccc(/C=C/c2cc(=O)c3ccccc3[nH]2)c1O	inconclusive: 8.91 µM [inhibitor, single point]
NS(=O)(=O)c1ccc(NC(=S)NC2CC2)cc1	inactive
C[C@@H](/C=C\c1cccc(Oc2ccc(F)cc2)c1)N(O)C(N)=O	inconclusive: 35.5 µM [inhibitor, single point]
CNC(=O)c1cc2c(cn1)[nH]c1ccccc12	inconclusive: 0.0251 µM [inhibitor, full curve, poor fit]
CCN1CCN(C2=CC3=CC(=C(C#N)C#N)CCC3CC2)CC1 (configuration not stated)	inconclusive: 14.1 µM [activator, partial curve]
Nc1c(C(=O)N/N=C/c2ccc(F)cc2)oc2nc(-c3ccccc3)cc(-c3ccco3)c12	inconclusive: 15.8 µM [inhibitor, partial curve]
O=C(COC(=O)/C=C/c1nc2ccccc2s1)Nc1ccccc1Oc1ccccc1	inconclusive: 22.4 µM [inhibitor, single point]
CCOc1ccc2nc(N3CCCC(C(=O)Nc4ccccc4CC)C3)sc2c1 (configuration not stated)	inconclusive: 11.2 µM [inhibitor, partial curve]
CC(C1CC2CCC1C2)N1CC(O)=C(c2nc3ccccc3[nH]2)C1=N (configuration not stated)	inconclusive: 7.08 µM [inhibitor, partial curve]
Fc1ccc(Nc2nc(-c3cccc(Cl)c3)c3c(n2)-c2ccccc2OC3)c(F)c1	inconclusive: 1.12 µM [inhibitor, full curve, poor fit]
O=C(NNc1c2ccccc2nc2ccccc12)c1cc2ccccc2cc1O	active: 2 µM
Cn1c(=O)n(Cc2ccccc2F)c(=O)c2c1nc1n2CCN1Cc1ccco1	inactive
Cc1ccc2[nH]c3c(N4CCN(Cc5ccc6c(c5)OCO6)CC4)ncnc3c2c1	inconclusive: 25.1 µM [inhibitor, partial curve]

SMILES	Potency
OCCCNc1cc(-c2ccnc(Nc3cccc(Cl)c3)n2)ccn1	inconclusive: 1.58 µM [inhibitor, full curve, poor fit]
c1ccc(Sc2ncnc3c2oc2ccccc23)cc1	inconclusive: 28.2 µM [inhibitor, single point]
COc1ccc(-c2[nH]nc(-c3ccccc3)c2-c2nc3ccccc3[nH]2)cc1	inconclusive: 8.91 µM [inhibitor, partial curve]
COc1cccc(NC(=O)Cn2c(=O)n(Cc3ccc(F)cc3)c(=O)c3sc4ccccc4c32)c1	inconclusive: 0.0708 µM [activator, full curve, poor fit]
Cn1c(=O)c2[nH]c(N=NNc3ccccc3F)nc2n(C)c1=O	active: 14.1 µM
O=C(OCc1cc(=O)n2c(n1)sc1ccccc12)c1ccc(O)cc1O	inconclusive: 0.891 µM [inhibitor, full curve]
CC(=O)NCCNC(=O)CCCc1nnc2n(CC(C)C)c(=O)c3sccc3n12	inactive
COc1ccc(NC(=O)/C(C#N)=C\c2ccc(OCc3ccc(C(=O)O)cc3)c(OC)c2)cc1	active: 3.98 µM
COc1ccc(CN=Cc2[nH]c3ccc(Br)c(Cl)c3c2O)cc1	active: 15.8 µM
Cc1cc(C(=O)N/N=C/c2cc(Cl)cc([N+](=O)[O-])c2O)n[nH]1	active: 12.6 µM
COCCN=C1OC(=O)N2C(=O)C3=C4C(C[C@H]5C(=O)N(c6ccccc6)C(=O)[C@H]5[C@H]4[C@@]12Cc1ccccc1)[C@H]1C(=O)N(c2ccccc2)C(=O)[C@H]1[C@H]3C (some centres not stated)	inconclusive: 0.794 µM [inhibitor, full curve, poor fit]
O=C(NCCCN1CCN(c2ccccc2F)CC1)c1ccc2nc(CCc3ccccc3)oc2c1	inconclusive: 0.126 µM [inhibitor, full curve, poor fit]
CCOc1ccc(NC(=O)c2nc(S(=O)(=O)Cc3ccccc3F)ncc2Cl)cc1	inconclusive: 6.31 µM [inhibitor, partial curve]
Clc1ccccc1-c1nn2c(-c3ccccn3)nnc2s1	inconclusive: 25.1 µM [inhibitor, single point]
CC(O)C(O)C(O)C(O)C1NCCS1 (configuration not stated)	inconclusive: 15.8 µM [inhibitor, partial curve]
N#C/C(=C\c1ccc(N2CCOCC2)o1)c1nc2ccccc2[nH]1	active: 7.94 µM
COC(=O)Nc1nnc(-c2ccc(OC)cc2)s1	inconclusive: 15.8 µM [inhibitor, partial curve, poor fit]
CCc1ccc(-c2nc3cc(NC(=O)c4ccc(C)c(C)c4)ccc3o2)cc1	inconclusive: 0.631 µM [inhibitor, full curve]
NNC(=O)CSc1nnnn1-c1ccccc1	inactive
O=C(CCc1ccccc1)Nc1ccccc1	inconclusive: 20 µM [inhibitor, single point]
CCOc1ccc(CNC(=O)CCc2c(C)nn(-c3ccc(N4CCCCC4)nn3)c2C)cc1	inconclusive: 15.8 µM [inhibitor, partial curve]
